Among all 350,000 compounds or so, about 31,000 (8.9%) were called active. This list was built around the results that the source calls inconclusive (neither active nor inactive); the mix of calls is not that of the screen. The call rests on the fitted dose curve; in most records, active means well fitted inhibition curve with a large enough effect; inconclusive means small, poorly fitted or top-dose-only effect; inactive means no such curve, though single readings can be large or run the other way. Potencies beside an inconclusive call are fits to weak or partial responses and may not hold up.
target: Histone-lysine N-methyltransferase EHMT2 (Homo sapiens) (UniProt Q96KQ7); experiment: qHTS Assay for Inhibitors of Histone Lysine Methyltransferase G9a; conditions: G9a H3K9 monomethylation, AlphaScreen, 2 h; activity, negative = inhibition: at 59 µM (top of the series) unless noted; further: nearly all actives have a fitted effect of over 75% in size
UniProt Q96KQ7, sequence (Q96KQ7 whole entry, looked up): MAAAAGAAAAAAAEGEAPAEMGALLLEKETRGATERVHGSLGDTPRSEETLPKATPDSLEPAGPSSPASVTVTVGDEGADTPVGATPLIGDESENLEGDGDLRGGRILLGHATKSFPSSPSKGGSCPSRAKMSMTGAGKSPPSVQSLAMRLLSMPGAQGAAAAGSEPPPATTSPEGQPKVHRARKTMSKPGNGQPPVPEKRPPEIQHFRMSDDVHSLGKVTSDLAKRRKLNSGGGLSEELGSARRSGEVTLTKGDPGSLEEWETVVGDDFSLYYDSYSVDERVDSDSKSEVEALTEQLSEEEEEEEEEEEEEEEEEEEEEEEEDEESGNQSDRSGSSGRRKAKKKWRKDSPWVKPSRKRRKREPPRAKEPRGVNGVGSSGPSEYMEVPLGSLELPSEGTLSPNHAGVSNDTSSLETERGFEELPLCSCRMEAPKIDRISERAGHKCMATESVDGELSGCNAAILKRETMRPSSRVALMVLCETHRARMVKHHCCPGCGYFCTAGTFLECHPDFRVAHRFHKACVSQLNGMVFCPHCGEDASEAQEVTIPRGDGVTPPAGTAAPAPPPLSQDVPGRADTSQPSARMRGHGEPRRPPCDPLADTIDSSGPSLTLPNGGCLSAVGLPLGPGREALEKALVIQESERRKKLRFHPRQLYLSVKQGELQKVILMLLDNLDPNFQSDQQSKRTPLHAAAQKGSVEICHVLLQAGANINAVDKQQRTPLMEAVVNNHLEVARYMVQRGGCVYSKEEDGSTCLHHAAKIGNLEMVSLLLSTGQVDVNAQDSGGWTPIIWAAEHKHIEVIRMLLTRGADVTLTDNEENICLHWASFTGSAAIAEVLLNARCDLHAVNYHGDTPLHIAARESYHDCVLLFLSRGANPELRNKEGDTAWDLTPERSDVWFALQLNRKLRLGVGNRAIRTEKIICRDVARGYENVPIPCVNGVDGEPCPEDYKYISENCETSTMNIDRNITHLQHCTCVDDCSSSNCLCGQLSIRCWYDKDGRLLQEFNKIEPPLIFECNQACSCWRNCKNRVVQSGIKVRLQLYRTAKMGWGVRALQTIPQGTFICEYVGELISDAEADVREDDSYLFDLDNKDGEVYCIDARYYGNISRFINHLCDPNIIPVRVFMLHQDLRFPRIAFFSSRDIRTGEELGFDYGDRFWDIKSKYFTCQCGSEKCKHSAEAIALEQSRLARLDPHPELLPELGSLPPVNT
Outline: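 G9a (20 nM) preincubated 15 min RT with compounds, then 500 nM biotinylated H3K9 peptide and 20 uM SAM added; 2 h RT reaction. Monomethyl-H3K9 product detected by AlphaScreen with anti-H3K9me1 antibody, streptavidin donor and anti-rabbit IgG acceptor beads.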
On the % scale 0 is the no-effect control and ±100 the full control effect; potency means the concentration at half of the fitted maximal effect; tags describe the fitted curve by direction and shape.

**Q.** `COC(=O)c1ccc(COC(=O)[C@@H]2CC(O)CN2S(=O)(=O)c2ccccc2[N+](=O)[O-])cc1` (stereo not given in full) was tested. Which Potency did it give?
**A.** Its Potency is inconclusive: 70.8 µM [inhibitor, partial curve, poor fit].

**Q.** How did the Potency turn out when `COc1cc(/C=N/NC(=O)c2ccoc2C)cc(OC)c1O` was run?
**A.** The Potency was inconclusive: 17.8 µM [inhibitor, partial curve, poor fit].

**Q.** `C/C=C/Cn1c(SCc2ccc(Cl)cc2)nc2c1c(=O)[nH]c(=O)n2C` was tested. Which Potency did it give?
**A.** Its Potency is active: 44.7 µM.

**Q.** With `COc1cccc(-c2nc(CS(=O)(=O)CC(=O)NCCCN3C(C)CCCC3C)c(C)o2)c1` (stereo not given) as the compound, how does the Potency read?
**A.** Its Potency is “inactive”.

**Q.** `CCOc1ccc(C2C(=O)N(C3CCCCCC3)CC(=O)N2Cc2ccc(F)cc2)cc1OC` (stereo not given) was tested. Which Potency did it give?
**A.** The Potency was “inactive”.

**Q.** `COC(=O)c1ccccc1NC(=O)CNCCc1ccc(OC)c(OC)c1` was tested. Which Potency did it give?
**A.** Its Potency is active: 7.94 µM.

**Q.** With `O=C1C(=O)N(CCO)C(c2ccccc2)/C1=C(\O)c1ccccc1` (stereo not given) as the compound, how does the Potency read?
**A.** The Potency was inconclusive: 89.1 µM [inhibitor, single point].

**Q.** How did the Potency turn out when `O=C(c1ccc(=O)oc1)N1CCC(C(O)(c2ccccc2)c2ccccc2)CC1` was run?
**A.** Its Potency is inconclusive: 56.2 µM [inhibitor, partial curve, poor fit].

**Q.** How did the Potency turn out when `C[C@H](NC(=O)c1ccccc1)C(=O)OCC(=O)Nc1ccc2c(c1)OCO2` was run?
**A.** Its Potency is inconclusive: 0.158 µM [inhibitor, full curve, poor fit].

**Q.** `COc1ccc(NS(=O)(=O)c2cccc(N3CC(O)=C(c4ccccc4)C3=N)c2)cc1` was tested. Which Potency did it give?
**A.** Its Potency is inconclusive: 89.1 µM [inhibitor, single point].

**Q.** With `CCN(CC)S(=O)(=O)c1ccc2[nH]c(=O)cc(C(=O)N(C)C3CCS(=O)(=O)C3)c2c1` (stereo not given) as the compound, how does the Potency read?
**A.** Its Potency is “inactive”.

**Q.** With `COc1cc2c(cc1OC)C(=S)NC(C)(C)C2` as the compound, how does the Potency read?
**A.** The Potency was inconclusive: 25.1 µM [inhibitor, single point].

**Q.** How did the Potency turn out when `O=S(=O)(NCCc1ccccc1)c1cccc2cccnc12` was run?
**A.** Its Potency is active: 50.1 µM.

**Q.** For `Cc1cc(Nc2cc(C(=O)O)ccc2C)n2ncnc2n1`, which Potency is on record?
**A.** Its Potency is inconclusive: 89.1 µM [inhibitor, single point].

**Q.** For `O=C(C1=C(O)C(=O)N(CCN2CCOCC2)C1c1cccc(Br)c1)c1cccs1` (stereo not given), which Potency is on record?
**A.** The Potency was active: 56.2 µM.

**Q.** `COc1ccc(C2NC(=O)c3ccccc3N2)cc1OC` (stereo not given) was tested. Which Potency did it give?
**A.** Its Potency is “inactive”.

**Q.** Which Potency does the source give for `CSc1ccc(/C=N\Nc2nncn2N)cc1` here?
**A.** Its Potency is inconclusive: 89.1 µM [inhibitor, single point].

**Q.** How did the Potency turn out when `Cc1nn(S(=O)(=O)c2ccc(C(C)(C)C)cc2)c(C)c1S(=O)(=O)N1CCOCC1` was run?
**A.** Its Potency is inconclusive: 89.1 µM [inhibitor, single point].

**Q.** With `COC(=O)c1ccccc1NC(=O)CSc1n[nH]c(-c2ccco2)n1` as the compound, how does the Potency read?
**A.** The Potency was “inactive”.

**Q.** For `O=C(NCc1ccccc1)c1ccc2nnsc2c1`, which Potency is on record?
**A.** The Potency was inconclusive: 89.1 µM [inhibitor, single point].

**Q.** `COc1ccccc1C(=O)Nc1cccc(OCc2cc(=O)n3c(C)csc3n2)c1` was tested. Which Potency did it give?
**A.** The Potency was inconclusive: 39.8 µM [inhibitor, partial curve, poor fit].

**Q.** With `CCc1ccccc1NC(=O)COC(=O)C1CC(=O)N(c2ccc(F)cc2)C1` (stereo not given) as the compound, how does the Potency read?
**A.** Its Potency is inconclusive: 44.7 µM [inhibitor, partial curve].

**Q.** How did the Potency turn out when `N#CC(C#N)=CC1=C2OC(c3ccccc3)=CC(c3ccccc3)=C2CCC1` was run?
**A.** The Potency was inconclusive: 3.55 µM [inhibitor, partial curve, poor fit].

**Q.** Which Potency does the source give for `O=C(Cc1ccc(S(=O)(=O)N2CCOCC2)s1)N1CCN(S(=O)(=O)c2cccc(Cl)c2)CC1` here?
**A.** The Potency was inconclusive: 89.1 µM [inhibitor, single point].

**Q.** With `CC(C)[C@@H]1NC(=O)c2cc([N+](=O)[O-])cc(I)c2NCCCC[C@@H](C(=O)NC(CC(=O)O)C(N)=O)NC(=O)[C@H](CO)NC1=O` (stereo not given in full) as the compound, how does the Potency read?
**A.** The Potency was active: 44.7 µM.

**Q.** `CC(C)c1nnc(NC(=O)CSc2ccccc2)s1` was tested. Which Potency did it give?
**A.** The Potency was inconclusive: 39.8 µM [inhibitor, single point].

**Q.** With `CCCCN(CC)C(=S)Nc1ccc2nc(N3CCN(C)CC3)cc(C)c2c1` as the compound, how does the Potency read?
**A.** The Potency was active: 39.8 µM.

**Q.** `CC(=O)NC1C(=O)N(Cc2ccccc2)c2ccc(Br)cc21` (stereo not given) was tested. Which Potency did it give?
**A.** Its Potency is active: 39.8 µM.

**Q.** How did the Potency turn out when `CCOc1ccc(CCNC(=O)c2cccc(S(=O)(=O)N3CCN(C(C)=O)CC3)c2)cc1OCC` was run?
**A.** The Potency was inconclusive: 89.1 µM [inhibitor, single point].

**Q.** `O=C(CN1CCN(c2ccccn2)CC1)Nc1cccc(S(=O)(=O)N2CCCC2)c1` was tested. Which Potency did it give?
**A.** Its Potency is inconclusive: 14.1 µM [inhibitor, full curve].

**Q.** `CN(C)c1ccc(/C=C2\C(=N)N3C(=NC2=O)Sc2cc(S(C)(=O)=O)ccc23)cc1` was tested. Which Potency did it give?
**A.** Its Potency is inconclusive: 89.1 µM [inhibitor, single point].

**Q.** Which Potency does the source give for `CC1=NN(c2ccccc2)C(=O)C1C(=O)c1ccc(Cl)cc1` (stereo not given) here?
**A.** The Potency was active: 39.8 µM.

**Q.** For `Cc1cc([N+](=O)[O-])ccc1N1C(=O)c2ccc(C(=O)Nc3ccccc3C(=O)O)cc2C1=O`, which Potency is on record?
**A.** The Potency was inconclusive: 89.1 µM [inhibitor, single point].

**Q.** Which Potency does the source give for `CCOC(=O)C1=C(COC(=O)/C=C/c2cccc(Br)c2)NC(=O)NC1C` (stereo not given) here?
**A.** The Potency was inconclusive: 8.91 µM [inhibitor, single point].

**Q.** With `CCN1CCc2c(sc(NC(=S)NC(=O)c3ccco3)c2C(N)=O)C1` as the compound, how does the Potency read?
**A.** The Potency was active: 20 µM.

**Q.** How did the Potency turn out when `Cc1[nH]n(-c2ccccc2)c(=O)c1/C=N/NC(=O)c1ccc(O)cc1O` was run?
**A.** The Potency was inconclusive: 89.1 µM [inhibitor, single point].

**Q.** Which Potency does the source give for `COc1ccc(C)cc1NC(=O)CNCc1cccs1` here?
**A.** Its Potency is “inactive”.

**Q.** With `COc1ccc(CCN(C)C2CCCN(S(=O)(=O)c3ccccc3F)C2)cc1OC` (stereo not given) as the compound, how does the Potency read?
**A.** The Potency was “inactive”.

**Q.** How did the activity, negative = inhibition turn out when `O=C(c1cnccn1)N1CCC[C@@]2(CCN(c3ncccn3)C2)C1` was run?
**A.** The activity, negative = inhibition was inactive: 1.6% [at 12.7 µM].

**Q.** For `O=C(CN1CCCCC1)NC(=O)Nc1ccccc1F`, which Potency is on record?
**A.** Its Potency is “inactive”.

**Q.** For `COc1cccc(NC(=O)CCSc2nc(-c3ccco3)cc(C(F)(F)F)n2)c1`, which Potency is on record?
**A.** The Potency was “inactive”.

**Q.** Which Potency does the source give for `N#Cc1ccccc1-c1ccccc1C(=O)N1CCCCC1` here?
**A.** The Potency was “inactive”.

**Q.** For `C=CCNCc1cccn1-c1ccccc1`, which Potency is on record?
**A.** The Potency was active: 8.91 µM.

**Q.** For `O=C(Nc1ccc(-n2cccn2)cc1)C1CCCCN1Cc1cccc2cccnc12` (stereo not given), which Potency is on record?
**A.** Its Potency is “inactive”.

**Q.** For `CCC(C)/C=C/C1=CC2=C(Cl)C(=O)C3(C)OC(=O)C(C(=O)C(C)C(C)O)C3C2=CO1` (stereo not given), which activity, negative = inhibition is on record?
**A.** Its activity, negative = inhibition is inconclusive: -76.3% [inhibitor].

— PubChem BioAssay AID504332 (National Center for Advancing Translational Sciences (NCATS), 2011)
